Results as given in the BET-seq Pho4 binding data (Le et al. 2018).
Some of the results follow. Values were computed here from the reads of four pooled replicates and scatter widely.

These sequences were tested against T1, Pho4 (S. cerevisiae) (UniProt P07270) (assay: relative binding free energy (BET-seq); higher = weaker binding). Settings: reference: library average.
T1 sequence: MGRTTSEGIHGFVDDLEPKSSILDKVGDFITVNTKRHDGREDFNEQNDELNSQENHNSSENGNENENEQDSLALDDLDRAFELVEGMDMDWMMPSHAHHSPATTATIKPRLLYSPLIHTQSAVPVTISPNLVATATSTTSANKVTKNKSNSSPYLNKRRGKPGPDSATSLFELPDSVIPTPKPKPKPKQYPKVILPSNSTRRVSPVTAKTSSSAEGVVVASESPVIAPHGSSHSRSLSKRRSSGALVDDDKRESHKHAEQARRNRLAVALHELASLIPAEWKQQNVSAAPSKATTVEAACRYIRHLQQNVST

Sequence	relative binding free energy [kJ/mol]
AGGAGCACGTGTTGGC	-0.335
TTGGACACGTGTGGGT	0.544
GGTAACACGTGGAGTT	0.209
ATTGACACGTGTTTGG	0.544
AGGGGCACGTGAGAAT	0.377
AGTTTCACGTGAAGAG	1
GGTCTCACGTGGTAAT	1.26
CATATCACGTGGAGTT	1.26
GTATTCACGTGTTGTT	1.05
ACGTGCACGTGTAAGT	-0.335
ATGGGCACGTGAGGGC	0.46
AGGGACACGTGGCTTG	-0.293
GAGATCACGTGTGGCT	1.21
TGTGACACGTGGCTTT	-0.46
GTTTGCACGTGGCGCT	-0.586
TGGATCACGTGTGGCG	0.544
GTTAGCACGTGTTGGC	0.126
GGAGGCACGTGCGGAG	-0.418
GTTATCACGTGTTTTG	1.26
GAAGTCACGTGGGAGT	0.335
TTTGACACGTGATTCT	0.586
CGATACACGTGGAGGT	-0.0837
TTGTTCACGTGAGGCG	1.63

Sequence	relative binding free energy [kJ/mol]
ATTATCACGTGTTTTC	1.26
CGGGGCACGTGGTAGC	-0.962
TAGTTCACGTGTCTGG	0.753
ATGGGCACGTGAGGAG	0.418
GCGCTCACGTGGGTAG	0.335
CATGACACGTGGGTTG	-0.418
GGTGTCACGTGTATTG	0.669
GTTATCACGTGTGGCG	-0.0837
TCGTGCACGTGGAAAG	0.377
ATGGGCACGTGCGGAT	-0.46
GTGTACACGTGGTCGG	0.0837
GTTTCCACGTGTGGCT	1.46
TTTGGCACGTGTTTTC	0.418
GGTGTCACGTGAAAGG	1.63
ACCAGCACGTGGGGTG	-0.962
GTACTCACGTGTGGGG	1.42
GATAACACGTGTGGCT	1
AATATCACGTGATGCT	0.962
TAAGGCACGTGAAGCG	0.962
TAGAGCACGTGGGTTC	-0.962
AATTTCACGTGGCGAT	1.92
TGTATCACGTGAGTTA	1.26
GCATGCACGTGAGTGG	0.544

Sequence	relative binding free energy [kJ/mol]
TCGGTCACGTGGACGG	1.21
GTTGGCACGTGATTAC	0.544
GTGTTCACGTGTTGTT	1.09
TAGTTCACGTGCTAAG	1.42
GTAGTCACGTGCGATT	0.711
ATAGCCACGTGTGAGG	-0.0418
GTGGACACGTGTATTT	0.711
GAGAGCACGTGTGGTA	-0.209
ATCGTCACGTGTGCTT	0.837
TTGGCCACGTGTTATT	0
TACGTCACGTGAGTAT	1.17
CAGGGCACGTGATGAG	-0.209
TTGAACACGTGAATGT	1.3
TCGTTCACGTGGGGAC	0.418
ATTGTCACGTGCTTGG	-0.377
AGTAGCACGTGTATCT	-0.209
TAGTTCACGTGGATTT	0.962
ACTGACACGTGGTAGG	-0.753
TAAATCACGTGGGATT	-0.209
TTTAGCACGTGTTTCT	-0.586
GCTGGCACGTGGTCGG	-1.13
GACGTCACGTGGGTTA	0.167
TATTACACGTGGACGT	0.0837

Sequence	relative binding free energy [kJ/mol]
ATTATCACGTGGGTAG	0.251
AGATGCACGTGTTGCG	-0.209
GGGCTCACGTGGGATG	1.13
GAGGTCACGTGGGTTT	0.711
TGTTACACGTGTCGTA	0.251
TTGTTCACGTGATGTC	1.88
GGAGGCACGTGCATTG	-0.293
TGTCCCACGTGAGGTG	-0.0418
TGCAACACGTGGGTAT	-0.502
TATGTCACGTGATGTT	0.795
CTTGACACGTGTATTT	-0.293
ACAATCACGTGTAGGT	1.34
TTGTTCACGTGTGACT	1.34
ATGGGCACGTGGTCGG	-0.879
GGCGGCACGTGGTGCA	-1
AGAGGCACGTGTGTGT	-0.251
ATTTTCACGTGAGCTT	2.01
ATCGTCACGTGGTAAG	0.209
CTAAACACGTGGGGGT	-0.46
ATGGGCACGTGCAATA	-0.126
TTGACCACGTGCGGGT	0
TGGAACACGTGCGTGG	-0.167
GTTGTCACGTGGAGGT	0.711

Sequence	relative binding free energy [kJ/mol]
TTTGGCACGTGTAGCC	0.0837
TGTGTCACGTGAGTAG	1.21
GGGGACACGTGCGAGT	0.502
TTCTGCACGTGGTAGT	-0.795
ATGGTCACGTGGGTAC	-0.377
AAAGTCACGTGTAGTT	1
ATTGTCACGTGTAATG	0.711
TGTTTCACGTGGCACA	1.05
GATTGCACGTGTGTCA	0.628
AAGGGCACGTGGAAGG	0.209
TGGAGCACGTGGTAAA	0.0418
GGGGTCACGTGAGGAC	1.3
TTGGGCACGTGATCGT	-0.544
TAAGACACGTGTATAT	0.251
TAGGACACGTGGATTT	0.418
AGGGTCACGTGGGGTC	-0.293
AGTGGCACGTGTGAAT	0.335
GCTGGCACGTGGTTGG	-0.0837
TGGTTCACGTGATTTG	1.59
TTTGACACGTGATGGA	0.335
CGCGGCACGTGATGGG	0.126
TGGAGCACGTGAGAGC	1.46
ACTAGCACGTGGAGTG	-0.418
